The whole screen tested about 71,000 compounds, of which about 1,800 (2.5%) were called active. The inconclusive results got no clear call from the source; some entries with a clear call stand among them for comparison. Calls follow the shape of the dose curve; as a rule, active = well fitted activation curve with a large enough effect in the signal ratio, with a control signal flat (not every such curve was filed as active); inconclusive = small, poorly fitted or top-dose-only effect, or effect the other way, or a change in a side signal; inactive = flat fitted curve, though single readings scatter; the % refers to the signal ratio. Where the call is inconclusive, the potency comes from a doubtful curve fit.
Test: Cell signaling CRE-BLA (Fsk stim); as to activity change, negative = inhibition: % of control where 0% means no effect
Details: CHO CRE-bla reporter (cAMP response element driving beta-lactamase), forskolin EC10, beta-lactamase ratio; activity change, negative = inhibition: at 38.2 µM (top of the series) unless noted
Summary of the method: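 The 460nm/530nm emission ratio after CCF4 loading defined %Activity, from which AC50 values were obtained. CRE-bla CHO cells received compound dilution series together with an EC10 level of NKH 477 for 3 hours at 37 degrees Celsius.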
For `CCNc1ncc2nc(-c3cc(F)cc(F)c3)c(=O)n(C)c2n1`, the Potency was inconclusive: 2.51 µM [rising, full curve]. For `CCN(CC)C(=O)CSc1ncnc2c(-c3cccs3)nsc12`, the Potency was inconclusive: 20 µM [rising, single point]. With `CNc1sc(C(=O)c2cccs2)c(N)c1-c1nc2ccccc2s1` the activity change, negative = inhibition was inconclusive: -22.8%. In the case of `O=C(c1ccco1)N1CCC[C@@]2(CCN(C(c3ccccc3)c3ccccc3)C2)C1`, the activity change, negative = inhibition is reported as inconclusive: 18.7%. With `COc1cc2[nH]c(=S)n(CCCN3CCOCC3)c(=O)c2cc1OC` the activity change, negative = inhibition was inconclusive: 10.6%. For `CSc1ccc(C2C(C#N)=C(N)Oc3c2ccc(=O)c2c(C)oc(C)c32)cc1` (stereo not drawn), the “activity change, negative = inhibition” value was inactive: -16.4%. With `COc1ccc(C(=O)N2CCC3(CCCN(C(=O)Nc4cccc(F)c4)C3)CC2)cc1` the “activity change, negative = inhibition” value was inactive: -10.6%. In the case of `c1cncc(-c2nc(N3CCCCCC3)c3ccccc3n2)c1`, the Potency is reported as inconclusive: 3.98 µM [rising, single point]. For `CCN(C(=O)COC(=O)c1c(-c2ccccc2)noc1C)C1CCS(=O)(=O)C1` (stereo not drawn), the Potency was inconclusive: 0.00794 µM [falling, full curve, poor fit]. In the case of `Cc1ccsc1-c1nc(CSCC(=O)NCCN2CCCC2)c(C)o1`, the activity change, negative = inhibition is reported as inconclusive: -3.3%. For `Cc1ccc(NC(=O)C2CCN(S(=O)(=O)c3cccc4cccnc34)CC2)nc1`, the “activity change, negative = inhibition” value was inactive: -10.4%. With `COCCn1c(SCc2ccc(C(=O)OC)o2)nc2cc(Cl)ccc2c1=O` the Potency was active: 5.01 µM. For `COC(=O)c1[nH]c2ccc(C)cc2c1NC(=O)C1=COCCO1`, the Potency was inconclusive: 25.1 µM [rising, single point]. In the case of `CCN(CC)Cc1c[nH]c2c(C(=O)OC)cccc12`, the “activity change, negative = inhibition” value is reported as inactive: -5.64%. With `COc1ccc(NC(=O)CN2CCN(c3ccc(Cl)cc3)CC2)c(OC)c1` the Potency was inconclusive: 0.0398 µM [falling, full curve, poor fit]. With `CCOC(=O)c1cc(C#N)c(SCC(=O)c2cc(C#N)c(SC)nc2C)nc1C` the activity change, negative = inhibition was inconclusive: 24.7%. In the case of `CCN1CCN(C(c2cccs2)C(C)NC(=O)c2ccco2)CC1` (stereo not drawn), the activity change, negative = inhibition is reported as inconclusive: 12.9%. With `O=C(NCCCN1CCOCC1)c1cc(-c2ccc(F)cc2)on1` the Potency was inconclusive: 10 µM [rising, partial curve]. With `Cc1ccc(C)c2[nH]c(=O)c(CN(CCN3CCCC3)C(=O)Nc3cccc(Cl)c3)cc12` the “activity change, negative = inhibition” value was inactive: -10.4%. In the case of `C/C(N)=C(/C#N)C(=O)CSc1n[nH]c(-c2ccccc2Br)n1`, the activity change, negative = inhibition is reported as inconclusive: -28.5%. In the case of `N[C@@H](Cc1ccc(O)c(O)c1)C(=O)O`, the activity change, negative = inhibition is reported as “inactive”. In the case of `Cc1ccc(-c2c(C#N)c(N)nc3c2CCCCCC3)o1`, the activity change, negative = inhibition is reported as inconclusive: 29.5%. In the case of `CCn1c(SCC(=O)Nc2ccc(C(C)=O)cc2)nc2ccccc21`, the activity change, negative = inhibition is reported as inconclusive: 27.2%. With `COC(=O)[C@@H]1O[C@@H](SCCN)[C@@H](O)[C@H](O)[C@H]1O` the activity change, negative = inhibition was inactive: 10.3% [at 7.6 µM]. For `CCOC(=O)C1CCN(Cc2cn[nH]c2-c2ccc(C)cc2)CC1`, the activity change, negative = inhibition was inconclusive: -11.3%. For `COc1ccc(C2NC(=O)NC(C)=C2C(=O)Nc2cccc(C)c2C)cc1` (stereo not drawn), the Potency was inconclusive: 10 µM [rising, partial curve]. With `CC(=O)[C@H]1CC[C@H]2[C@@H]3C=CC4=CC(=O)CC[C@@]4(C)[C@H]3CC[C@]12C` the “activity change, negative = inhibition” value was inactive: 20.7% [at 17.1 µM]. For `Nc1ccccc1NC(=O)c1ccccc1N`, the activity change, negative = inhibition was inconclusive: 18.8%. In the case of `Cc1c2c(nc3ccccc13)-c1cccc(=O)n1C2`, the Potency is reported as active: 1.58 µM. In the case of `CCCCOc1ccccc1NC(=O)CC1Nc2ccccc2NC1=O` (stereo not drawn), the Potency is reported as active: 3.16 µM. For `CN(C)c1ncc2ncc(=O)n(C[C@H]3CCCO3)c2n1`, the Potency was inconclusive: 15.8 µM [rising, partial curve]. In the case of `COC(=O)CN(c1ccc2c(c1)OCCO2)S(=O)(=O)c1ccccc1`, the “activity change, negative = inhibition” value is reported as inactive: -5.82%. With `COc1nc(-c2ccc(C)cc2)ccc1-c1noc(-c2cccnc2)n1` the activity change, negative = inhibition was inconclusive: 5.88%. For `COc1ccc(OC)c(NC(=O)C2C3C=CC(C3)C2C(=O)NCc2ccccn2)c1` (stereo not drawn), the “activity change, negative = inhibition” value was inactive: 6.36%. In the case of `Cc1noc(C)c1C(=O)N1CCC2(CCCN(c3ccccn3)C2)CC1`, the “activity change, negative = inhibition” value is reported as inactive: -8.74%. For `c1ccc2nc(CC[C@@H]3CCCCN3)ccc2c1`, the activity change, negative = inhibition was inactive: 5.7% [at 7.6 µM]. With `OC(CN(c1ccccc1)c1ccccc1)Cn1cnc2ccccc21` (stereo not drawn) the “activity change, negative = inhibition” value was inactive: -11.3%. In the case of `Cc1nc(=O)c(-c2ccccc2)c(C)n1-c1ccc(C(=O)O)cc1`, the activity change, negative = inhibition is reported as inconclusive: 7.3% [at 7.6 µM]. For `Cc1cnc(CNc2ncnc3ccc(-c4c(C)noc4C)cc23)cn1`, the Potency was inconclusive: 10 µM [rising, single point]. With `O=C(O)CCCC(=O)Nc1cccc(C(F)(F)F)c1` the “activity change, negative = inhibition” value was inactive: -1.67%. With `COc1cc2nc(SCc3c(C)noc3C)n(CCC3=CCCCC3)c(=O)c2cc1OC` the Potency was inconclusive: 3.16 µM [falling, partial curve]. For `O=C(NCc1ccco1)C1CCCN(S(=O)(=O)c2cccc3nonc23)C1` (stereo not drawn), the activity change, negative = inhibition was inconclusive: -13.9%. For `O=C(CN1C(=O)NC2NC(=O)NC21)NC1CCCCC1` (stereo not drawn), the “activity change, negative = inhibition” value was inactive: -5.83%. With `O=c1oc(-c2cccs2)nc2c1cnn2-c1ccccc1` the activity change, negative = inhibition was inconclusive: 22.5%. For `COc1cccc(C2C(C(=O)c3ccco3)=C(O)C(=O)N2CCCN2CCOCC2)c1OC` (stereo not drawn), the activity change, negative = inhibition was inconclusive: -22.7% [at 7.6 µM]. For `COc1ccc(Cl)cc1NC(=O)COc1cccc(-n2cnnn2)c1`, the activity change, negative = inhibition was inconclusive: 28.7%. For `COCCNc1ncnc2ccc(-c3ccccc3OC)cc12`, the activity change, negative = inhibition was inconclusive: 23.7%. In the case of `CCCCCNC(=O)CCCCn1c(=O)[nH]c2cc(OCC)c(OCC)cc2c1=O`, the activity change, negative = inhibition is reported as inconclusive: -1.77%. For `CCN(CC(=O)Nc1ccc2c(c1)OCCO2)c1ccc(S(=O)(=O)N2CCOCC2)cn1`, the “activity change, negative = inhibition” value was inactive: -7.53%. With `COc1cccc(Nc2ncc3nc(CCc4ccccc4)c(=O)n(C)c3n2)c1` the activity change, negative = inhibition was inconclusive: 26.7%. With `COc1ccc(-c2noc(CSc3nnc(-c4ccncc4)n3-c3ccc(F)cc3)n2)cc1OC` the Potency was inconclusive: 12.6 µM [rising, partial curve]. In the case of `O=C1N(CC(=O)N2CCc3ccccc32)CCN1Cc1ccccc1Cl`, the Potency is reported as inconclusive: 2 µM [falling, full curve, poor fit]. With `COC(=O)[C@H]1C[C@@H]1[C@H](NC(=O)c1ccccc1)c1ccccc1` the “activity change, negative = inhibition” value was inactive: 1.37%. With `O=C(Nc1nc2ccc(Cl)cc2s1)c1ccc(Br)o1` the activity change, negative = inhibition was inconclusive: 5.36% [at 7.6 µM]. With `CCC(C)N1C(=O)CCC1C(=O)NCc1ccc2c(c1)OCO2` (stereo not drawn) the “activity change, negative = inhibition” value was inactive: -6.09%. With `CCOC(=O)c1c(NC(=O)CSc2n[nH]c(-c3ccco3)n2)sc(C)c1C` the Potency was active: 0.0631 µM. In the case of `CCCn1c2c(c(O)c(C(=O)Nc3ccc(OC)cc3)c1=O)CCCC2`, the activity change, negative = inhibition is reported as inconclusive: 11.4%. In the case of `COc1ccc(Cn2nnc3c(=O)[nH]c(C4CCCN(C(=O)c5ccccc5)C4)nc32)cc1` (stereo not drawn), the Potency is reported as inconclusive: 10 µM [rising, single point]. For `CCc1c(C)nc2ncnn2c1N1CCCC(C(=O)NCc2ccco2)C1` (stereo not drawn), the Potency was inconclusive: 10 µM [rising, partial curve]. For `COc1ccccc1OCC(=O)Nc1ccc(S(=O)(=O)N2CCCCCC2)cc1`, the activity change, negative = inhibition was inconclusive: 19.3% [at 7.6 µM]. For `c1coc(CNc2nc3nonc3nc2NCc2ccco2)c1`, the “activity change, negative = inhibition” value was inactive: -11.5%. For `Cn1c(=O)c2ncn(CC(=O)NCCC3=CCCCC3)c2n(C)c1=O`, the activity change, negative = inhibition was inconclusive: 12.3%. In the case of `CCc1ccc(N(C(C)=O)C2C=CS(=O)(=O)C2)cc1` (stereo not drawn), the activity change, negative = inhibition is reported as inconclusive: -7.62%. For `COc1cc(C(=O)NCc2cn3cccc(C)c3n2)cc(OC)c1OC`, the Potency was active: 12.6 µM. With `O=C(c1ccco1)N1CCN(S(=O)(=O)c2ccc(S(=O)(=O)NC3CCCC3)cc2)CC1` the “activity change, negative = inhibition” value was inactive: 12.1%. In the case of `Cc1ccc(O)c(N=CC2=C(O)c3ccccc3C2=O)c1`, the “activity change, negative = inhibition” value is reported as inactive: 15%. For `O=S(=O)(c1ccc2c(c1)OCCO2)N1CCC(n2nnc3cc(C(F)(F)F)ccc32)CC1`, the Potency was inconclusive: 12.6 µM [rising, single point]. In the case of `COc1ccccc1C(=O)Nc1ccc2c(c1)nc(CCNC(C)=O)n2C`, the “activity change, negative = inhibition” value is reported as inactive: 5.75%. With `c1ccc(-n2nnnc2Sc2n[nH]c(-c3ccncc3)n2)cc1` the activity change, negative = inhibition was inconclusive: 1.89%. With `N#Cc1cccc(NC(=O)N2CCC3(CC2)CCN(C(=O)c2csnn2)CC3)c1` the activity change, negative = inhibition was inconclusive: 0.929%. For `O=C(CSc1ccc2nnc(-c3ccc(F)cc3)n2n1)N1CCOCC1`, the “activity change, negative = inhibition” value was inactive: -1.72%. With `COCCn1c(=O)c(-c2ccccc2)nc2cnc(N3CCNCC3)nc21` the Potency was inconclusive: 6.31 µM [rising, partial curve]. For `CC1Cc2ccccc2N1C(=O)CN1C(=O)NC(C)(c2ccc3c(c2)OCCO3)C1=O` (stereo not drawn), the Potency was inconclusive: 0.1 µM [falling, single point]. With `CC1CCc2c(sc(NC(=O)c3ccc(Cn4cc(Br)cn4)o3)c2C(N)=O)C1` (stereo not drawn) the Potency was inconclusive: 6.31 µM [rising, partial curve]. For `C#C[C@H](N)CCC(=O)O`, the “activity change, negative = inhibition” value was inactive: -0.936%. With `CO[Si](CCCNCCC[Si](OC)(OC)OC)(OC)OC` the “activity change, negative = inhibition” value was inactive: -5.62%. With `O=C1c2c(O)ccc(O)c2C(=O)c2c(NCCNCCO)ccc(NCCNCCO)c21` the activity change, negative = inhibition was “inactive”. In the case of `CCc1nc(SCC(=O)c2ccc(C)c(C)c2)n[nH]1`, the activity change, negative = inhibition is reported as inconclusive: 2.07% [at 7.6 µM]. For `Cn1nc(-c2ccc(C(=O)Nc3cccnc3)cc2)c2ccccc2c1=O`, the Potency was inconclusive: 15.8 µM [rising, single point]. For `Cc1ccc(-c2nc3ccccc3n3nnnc23)cc1`, the “activity change, negative = inhibition” value was inactive: -3.93%. For `CCn1cc(C(=O)NCc2ccc3c(c2)OCO3)c(=O)c2cc(S(=O)(=O)N3CCOCC3)ccc21`, the activity change, negative = inhibition was inconclusive: 7.41%. For `CN1CCN(S(=O)(=O)c2ccc(SCCOc3ccccc3)nc2)CC1`, the “activity change, negative = inhibition” value was inactive: -7.14%. In the case of `CCC(=O)Nc1c(C#N)c2nc3ccccc3nc2n1-c1ccc(C)cc1`, the Potency is reported as inconclusive: 2 µM [rising, full curve].

From PubChem BioAssay AID662 (National Center for Advancing Translational Sciences (NCATS), 2007)
Potency is read from the fitted curve at half-maximal effect; tags tell the direction and shape of the fitted curve.
